Assay results reported in PubChem BioAssay AID720507 (National Center for Advancing Translational Sciences (NCATS), 2013).
Values joined by “and” are separate entries in the source; they are usually repeats but may differ in a detail not shown here. Identical values can stand only once. In all, about 2,300 compounds went through this assay and about 140 (6.1%) were called active. The shares of active, inactive and inconclusive entries below differ from those in the screen. The call rests on the fitted dose curve; in most records, active means well fitted activation curve with a large enough effect; inconclusive means small, poorly fitted or top-dose-only effect; inactive means flat fitted curve, though single readings scatter. Potencies of inconclusive entries are doubtful fits and often do not repeat.

The compounds below were run against D(2) dopamine receptor (Homo sapiens) (UniProt P14416) (assay: qHTS of D3 Dopamine Receptor Agonist: D2 Dopamine Receptor B-arrestin Agonist Counterscreen). Conditions: DiscoveRx PathHunter D2 beta-arrestin, luminescence, 90 min; series mostly up to 76.9 µM.
UniProt P14416, sequence (P14416 whole entry, looked up): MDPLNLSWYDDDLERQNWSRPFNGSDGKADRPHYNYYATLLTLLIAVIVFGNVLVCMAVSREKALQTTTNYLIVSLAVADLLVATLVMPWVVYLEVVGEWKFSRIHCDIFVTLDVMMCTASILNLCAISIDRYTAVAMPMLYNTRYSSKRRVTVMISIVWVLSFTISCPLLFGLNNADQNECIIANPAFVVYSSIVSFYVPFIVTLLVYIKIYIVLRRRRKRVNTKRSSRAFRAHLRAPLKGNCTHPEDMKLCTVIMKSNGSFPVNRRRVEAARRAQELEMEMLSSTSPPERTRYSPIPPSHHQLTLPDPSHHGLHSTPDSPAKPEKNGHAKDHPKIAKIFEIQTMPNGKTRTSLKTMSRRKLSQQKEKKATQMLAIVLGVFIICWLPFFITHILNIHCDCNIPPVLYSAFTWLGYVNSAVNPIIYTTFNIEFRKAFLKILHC
Procedure, shortened: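 In engineered D2 cells, β-arrestin recruitment by compounds is measured by luminescence after 90 minutes at 37 deg C plus 1 hour with detection reagent at room temperature.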
Further: nearly all actives have a fitted effect of over 70% in size.
Potency means the concentration at half of the fitted maximal effect; tags describe the fitted curve by direction and shape.

Which Potency does the source give for `COc1ccccc1CN1CCN(C(=O)c2ccco2)CC1` here?
Its Potency is active: 10 µM.

With `Cn1c(N)c(C(=O)CSc2nnc(-c3cccs3)n2C2CC2)c(=O)[nH]c1=O` as the compound, how does the Potency read?
The Potency was “inactive”.

How did the Potency turn out when `CC1(C)CC(O)(CNCc2ccc3c(c2)OCO3)CCO1` (stereo not given) was run?
Its Potency is inconclusive: 31.6 µM [activator, full curve].

With `COc1cc(CN2CCN(c3ccccc3F)CC2)cc(OC)c1O` as the compound, how does the Potency read?
The Potency was inconclusive: 12.6 µM [activator, full curve, poor fit].

For `CC(=O)Nc1ccc(NC(=O)CN2CCN(c3ccccn3)CC2)cc1`, which Potency is on record?
Its Potency is inconclusive: 63.1 µM [activator, partial curve, poor fit].

With `Cn1c(CCN2CCN(c3ccccn3)CC2)nc2cc(NC(=O)COc3ccccc3)ccc21` as the compound, how does the Potency read?
Its Potency is inconclusive: 158 µM [activator, partial curve].

For `O=C(CN1CCCC1)Nc1cc(C(F)(F)F)cc(C(F)(F)F)c1`, which Potency is on record?
Its Potency is “inactive”.

With `OC(COc1ccc2c(c1)OCO2)CN1CCN(c2ccccc2)CC1` (stereo not given) as the compound, how does the Potency read?
The Potency was inconclusive: 126 µM [activator, partial curve].

With `COc1cccc(-n2c(CN3CCN(c4ccccn4)CC3)nc3ccc([N+](=O)[O-])cc3c2=O)c1` as the compound, how does the Potency read?
Its Potency is “inactive”.

For `O=C(c1cccs1)N1CCN(Cc2cccc([N+](=O)[O-])c2)CC1`, which Potency is on record?
The Potency was inconclusive: 35.5 µM [activator, full curve, poor fit].

`O=C(CCN1CCN(c2ccccc2F)CC1)Nc1cccc(F)c1` was tested. Which Potency did it give?
The Potency was inconclusive: 316 µM [activator, partial curve].

With `C=CCC1Cc2c(cccc2[N+](=O)[O-])C(CC=C)N1` (stereo not given) as the compound, how does the Potency read?
The Potency was active: 22.4 µM.

For `COc1ccccc1C(=O)Nc1ccnn1C1CCN(CCCc2ccccc2)CC1`, which Potency is on record?
Its Potency is “inactive”.

Which Potency does the source give for `Cc1ccc(C(=O)N2CCN(C34CC5CC(CC(C5)C3)C4)CC2)o1` here?
Its Potency is “inactive”.

Which Potency does the source give for `Cc1ccc(CN(C)C(=O)COC(=O)CSc2cc(C)c3ccccc3n2)cc1` here?
The Potency was “inactive”.

Which Potency does the source give for `CC1(C)C2CC[C@]1(C)C(=O)N(CCCCN1CCN(c3ccccn3)CC1)C2=O` here?
The Potency was active: 0.0631 µM.

`Cc1ccc2[nH]c(=O)c(CN(C(=O)c3cccc([N+](=O)[O-])c3)C(C)C)cc2c1` was tested. Which Potency did it give?
The Potency was “inactive”.

With `COc1ccccc1/C=C/CN1CCN(c2ccccc2)CC1` as the compound, how does the Potency read?
The Potency was inconclusive: 631 µM [activator, partial curve, poor fit].

How did the Potency turn out when `CCOc1ccc(/C=N/NC(=O)c2ccc(O)cc2)cc1CN1CC2CC(C1)c1cccc(=O)n1C2` (stereo not given) was run?
Its Potency is “inactive”.

Which Potency does the source give for `Cn1c(CCN2CCN(c3ccccn3)CC2)nc2cc(NS(=O)(=O)c3ccc(Cl)cc3)ccc21` here?
The Potency was inconclusive: 126 µM [activator, partial curve].

How did the Potency turn out when `OCC1(Cc2ccc(Cl)cc2)CCN(CCCc2ccccc2)CC1` was run?
Its Potency is inconclusive: 17.8 µM [activator, full curve].

`CCCN(CCC)CCNC(=O)c1cc2c(-c3ccc(Cl)cc3)nn(C)c2s1` was tested. Which Potency did it give?
Its Potency is inconclusive: 35.5 µM [activator, full curve].

How did the Potency turn out when `Cc1cc(Cl)ccc1Oc1ncc(CN2CCN(c3ccccc3)CC2)s1` was run?
Its Potency is active: 31.6 µM.

With `COc1ccc(OC)c(NC(=O)CCN2CCN(c3ccccc3)CC2)c1` as the compound, how does the Potency read?
The Potency was inconclusive: 4.47 µM [activator, full curve].

For `COc1ccc([C@H]2CC(=O)C=C(c3ccc4c5c(cccc35)CC4)C2)cc1`, which Potency is on record?
Its Potency is “inactive”.

For `CCS(=O)(=O)N1CCN(C(C)CCc2ccccc2)CC1` (stereo not given), which Potency is on record?
Its Potency is inconclusive: 28.2 µM [activator, full curve].

For `COc1ccc(CNC(=O)[C@]2(C)CCC[C@@]3(C)C4CC[C@@]5(C)C[C@]4(CCC32)CC5=O)cc1` (stereo not given in full), which Potency is on record?
The Potency was “inactive”.

For `COC(=O)C1CCN(CC(=O)Nc2ccc(C(=O)Nc3ccccc3OC)cc2)CC1`, which Potency is on record?
The Potency was inconclusive: 63.1 µM [activator, partial curve].

For `O=C(NCC(c1ccco1)N1CCN(c2ccccc2F)CC1)C(=O)NC1CC1` (stereo not given), which Potency is on record?
Its Potency is inconclusive: 100 µM [activator, partial curve].

With `Fc1ccc(CN2CCN(c3ncccn3)CC2)c(F)c1` as the compound, how does the Potency read?
Its Potency is active: 15.8 µM.

How did the Potency turn out when `Fc1ccc(CN2CCN(c3ncccn3)CC2)cc1` was run?
The Potency was inconclusive: 1.78 µM [activator, full curve].

How did the Potency turn out when `CC(C)n1ncc2c(C(=O)N3CCN(Cc4ccc(Br)s4)CC3)cc(C3CC3)nc21` was run?
Its Potency is inconclusive: 63.1 µM [activator, partial curve].

With `O=C(CN1CCN(c2ccccn2)CC1)Nc1ccc(OCc2ccccc2)cc1` as the compound, how does the Potency read?
The Potency was inconclusive: 31.6 µM [activator, full curve].

For `COc1cccc(OC)c1OCC(O)CN1CCN(c2ccccc2F)CC1` (stereo not given), which Potency is on record?
Its Potency is inconclusive: 251 µM [activator, partial curve].

Which Potency does the source give for `OC(COC(c1ccccc1)c1ccccc1)CN1CCN(c2ccccn2)CC1` (stereo not given) here?
The Potency was inconclusive: 25.1 µM [activator, full curve].

Which Potency does the source give for `COc1cccc(S(=O)(=O)NCc2ccc(C(=O)N3CCN(c4ccccc4)CC3)cc2)c1` here?
The Potency was inconclusive: 50.1 µM [activator, partial curve].

How did the Potency turn out when `c1ccc(OCCN2CCN(Cc3nc(-c4ccc5c(c4)OCO5)no3)CC2)cc1` was run?
Its Potency is inconclusive: 15.8 µM [activator, full curve].

`CC(=O)c1cc2c(C)c(C(=O)c3ccccc3)oc2cc1O` was tested. Which Potency did it give?
The Potency was “inactive”.

`Cc1c(C(=O)OCC(=O)N2C(C)CCCC2C)oc2ccccc12` (stereo not given) was tested. Which Potency did it give?
Its Potency is “inactive”.

How did the Potency turn out when `CCOC(=O)c1ccc(NC(=O)CN2CCN(c3ccccc3)CC2)cc1` was run?
Its Potency is inconclusive: 63.1 µM [activator, partial curve].

Which Potency does the source give for `O=C(CCc1nc2ccccc2c(=O)[nH]1)Nc1ccc(Cl)c(Cl)c1` here?
Its Potency is inconclusive: 100 µM [activator, partial curve, poor fit].

How did the Potency turn out when `CCN1CCc2c(sc(NC(=O)c3ccc(C(=O)c4ccccc4)cc3)c2C(N)=O)C1` was run?
The Potency was “inactive”.

`Cc1ccc(F)cc1NC(=O)CN1CCN(c2ccccn2)CC1` was tested. Which Potency did it give?
Its Potency is inconclusive: 158 µM [activator, partial curve].

How did the Potency turn out when `COc1ccc(Oc2ncc(CN3CCN(c4ccccc4)CC3)s2)cc1` was run?
The Potency was active: 5.62 µM.

Which Potency does the source give for `Cn1c2ccccc2c2cnn(CC(=O)NCCCN3CCN(c4ccccc4F)CC3)c(=O)c21` here?
The Potency was “inactive”.

Which Potency does the source give for `Cc1ccccc1C(=O)NCC(=O)NNC(=O)CCN1CCN(c2ccccc2)CC1` here?
Its Potency is inconclusive: 4.47 µM [activator, full curve, poor fit].

For `O=C(c1cccs1)N1CCN(Cc2ccncc2)CC1`, which Potency is on record?
The Potency was inconclusive: 100 µM [activator, single point].

How did the Potency turn out when `COc1cc(CN2CCN(c3ncccn3)CC2)cc(OC)c1` was run?
The Potency was active: 2.82 µM.

For `N#CC[C@H](Cc1ccccc1)N1CCN(CCc2ccccc2)CCC1=O`, which Potency is on record?
Its Potency is “inactive”.

Which Potency does the source give for `O=C(CSc1ncnc2scc(-c3ccccc3)c12)N1CCN(Cc2ccc3c(c2)OCO3)CC1` here?
The Potency was inconclusive: 63.1 µM [activator, partial curve].

With `c1ccc(CCCN2CCN(c3ccccc3)CC2)cc1` as the compound, how does the Potency read?
The Potency was “inactive”.

For `O=C(CN1CCN(c2cccc(Cl)c2)CC1)Nc1ccc(S(=O)(=O)N2CCOCC2)cc1`, which Potency is on record?
Its Potency is inconclusive: 63.1 µM [activator, partial curve].

For `CCCCCCc1cc2cc(S(=O)(=O)c3ccc(F)c(Cl)c3)c(=O)oc2cc1O`, which Potency is on record?
The Potency was inconclusive: 501 µM [activator, partial curve, poor fit].

How did the Potency turn out when `CC(C(=O)N(C)Cc1ccccc1)N1CCN(C/C=C/c2ccccc2)CC1` (stereo not given) was run?
Its Potency is inconclusive: 15.8 µM [activator, full curve].

How did the Potency turn out when `O=C(c1ccco1)N1CCN(CC(O)COc2ccc3oc4ccccc4c3c2)CC1` (stereo not given) was run?
The Potency was active: 50.1 µM.

For `Cc1cc(OCc2cc(C(=O)N3CCC(Oc4cccnc4)CC3)no2)cc(C)c1Cl`, which Potency is on record?
Its Potency is inconclusive: 31.6 µM [activator, full curve, poor fit].

`COc1ccccc1C1CCN(Cc2cccc(C(=O)N3CCC(O)CC3)c2)CC1` was tested. Which Potency did it give?
The Potency was “inactive”.

How did the Potency turn out when `COc1cc(OC)c2ccc(=O)oc2c1C(CCN1CCN(c2ccccc2)CC1)c1ccc2c(c1)OCO2` (stereo not given) was run?
The Potency was inconclusive: 316 µM [activator, partial curve, poor fit].

Which Potency does the source give for `COc1cccc(OCC(O)CN2CCN(c3ccccc3)CC2)c1` (stereo not given) here?
Its Potency is inconclusive: 1.26 µM [activator, full curve] and inconclusive: 5.01 µM [activator, full curve].

How did the Potency turn out when `COc1ccc(/C=c2\s/c(=C/C(=O)c3ccc(C)cc3)[nH]c2=O)cc1OC` was run?
Its Potency is “inactive”.

With `CCNC(=O)C(=O)Nc1ccc([N+](=O)[O-])cc1` as the compound, how does the Potency read?
The Potency was “inactive”.

Which Potency does the source give for `O=C(c1ccco1)N1CCN(CCOc2ccccc2)CC1` here?
The Potency was inconclusive: 200 µM [activator, partial curve].

How did the Potency turn out when `O=C(c1ccco1)N1CCN(C/C=C/c2ccccc2)CC1` was run?
The Potency was inconclusive: 14.1 µM [activator, full curve].

With `COc1ccc([N+](=O)[O-])cc1NC(=O)CCN1CCN(c2ccccc2)CC1` as the compound, how does the Potency read?
Its Potency is inconclusive: 1.12 µM [activator, full curve, poor fit].

With `CCCc1ccc(OCC(O)CN2CCN(c3ccccn3)CC2)cc1` (stereo not given) as the compound, how does the Potency read?
The Potency was inconclusive: 17.8 µM [activator, full curve].

How did the Potency turn out when `Cc1ccc(C(=O)CN2CCN(c3ccccn3)CC2)c(C)c1` was run?
The Potency was inconclusive: 7.94 µM [activator, full curve].

How did the Potency turn out when `CC(C)(C)SCCNC(=O)c1ccc(CN2CCc3ccccc3C2)cc1` was run?
The Potency was “inactive”.

For `C(#Cc1ccccc1)CN1CCN(c2ccccn2)CC1`, which Potency is on record?
The Potency was “inactive”.

`COc1cccc(NC(=O)CCN2CCN(c3ccccc3F)CC2)c1` was tested. Which Potency did it give?
The Potency was inconclusive: 0.316 µM [activator, full curve].

For `O=C(c1ccc(Br)o1)N1CCN(CCOc2ccccc2)CC1`, which Potency is on record?
The Potency was inconclusive: 7.08 µM [activator, full curve].
